± gives the standard error. Variants at the background level are over-represented here.
B1: glmS ribozyme (parent)
chain: AUAAAAGCGCCAGAACUACAGAAAUGUAGUUGACGAGGAGGAGGUUUAUCGAAUUUUCGGCGGAUGCCUCCAAA

Variants of: B1
Assay: self-cleavage kobs at 2500 uM GlcN6P; higher = faster cleavage; RNA array
Settings: with glucosamine-6-phosphate
Summary of the method: (§1)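 The measurements used barcoded ribozyme variants on sequenced MiSeq chips, transcribed in situ by E. coli RNA polymerase and tracked at 37 °C with a hybridised Cy3 probe. Glucosamine-6-phosphate, 40 μM to 10 mM in HEPES/KCl/Mg(OAc)2 buffer, was flowed in while tiles were imaged over ~14 h. Baseline-normalised signals, also normalised to non-cleaving reference variants, gave per-tile medians that were fit to one- or two-exponential decays for kobs. kcat and KM resulted from weighted Michaelis–Menten fits across concentrations.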

Compared with G32U G40C U49C A53U C58G, U31C G32C A39G is higher in “self-cleavage kobs at 2500 uM GlcN6P” value: less than 1e-05 s⁻¹ for the first, 0.000381 ± 0.00015 s⁻¹ for the second.

U30C C34A A48U and C34U U56A C61U cannot be ordered by “self-cleavage kobs at 2500 uM GlcN6P” value: less than 1e-05 s⁻¹ for the first, less than 1e-05 s⁻¹ for the second.

A36C G44U G59A G60U and C34A U49G U55A cannot be ordered by “self-cleavage kobs at 2500 uM GlcN6P” value: less than 1e-05 s⁻¹ for the first, less than 1e-05 s⁻¹ for the second.

First: C16A A33U A52U
Second: U31G G32U C58U
The “self-cleavage kobs at 2500 uM GlcN6P” value of the first is lower: less than 1e-05 s⁻¹ for the first, 8.74e-05 ± 2.9e-05 s⁻¹ for the second.

First: G29U G44C A64U
Second: C16U G32A
The “self-cleavage kobs at 2500 uM GlcN6P” value of the first is lower: less than 1e-05 s⁻¹ for the first, 0.00201 ± 0.00037 s⁻¹ for the second.

U30C C34A G60C C68U and G32C U47C G51U cannot be ordered by “self-cleavage kobs at 2500 uM GlcN6P” value: less than 1e-05 s⁻¹ for the first, less than 1e-05 s⁻¹ for the second.

U31C U65G C68G and A36G A53C U54G C71U cannot be ordered by “self-cleavage kobs at 2500 uM GlcN6P” value: less than 1e-05 s⁻¹ for the first, less than 1e-05 s⁻¹ for the second.

U30A G38A A52G and U30G G37A G43C G44A C70G cannot be ordered by “self-cleavage kobs at 2500 uM GlcN6P” value: less than 1e-05 s⁻¹ for the first, less than 1e-05 s⁻¹ for the second.

Going from G32U A52G to A33C A36U G37U G43U U57C G59A, the “self-cleavage kobs at 2500 uM GlcN6P” value falls from 3.86e-05 ± 7.8e-06 s⁻¹ to less than 1e-05 s⁻¹.

C34U G37A A39C and G35C G41U U45G A64C C70G cannot be ordered by “self-cleavage kobs at 2500 uM GlcN6P” value: less than 1e-05 s⁻¹ for the first, less than 1e-05 s⁻¹ for the second.

G32C A39U A52U and G29C G51A G62C cannot be ordered by “self-cleavage kobs at 2500 uM GlcN6P” value: less than 1e-05 s⁻¹ for the first, less than 1e-05 s⁻¹ for the second.

A36G G40C C61G A64G and G32C A52U G60C cannot be ordered by “self-cleavage kobs at 2500 uM GlcN6P” value: less than 1e-05 s⁻¹ for the first, less than 1e-05 s⁻¹ for the second.

C34G A36C A42C and G32A G63U C67G cannot be ordered by “self-cleavage kobs at 2500 uM GlcN6P” value: less than 1e-05 s⁻¹ for the first, less than 1e-05 s⁻¹ for the second.

A36C G40A G43A C50G U69A and U31C A33C U46G cannot be ordered by “self-cleavage kobs at 2500 uM GlcN6P” value: less than 1e-05 s⁻¹ for the first, less than 1e-05 s⁻¹ for the second.

C16U U57A G59C and A33G A36U U65G cannot be ordered by “self-cleavage kobs at 2500 uM GlcN6P” value: less than 1e-05 s⁻¹ for the first, less than 1e-05 s⁻¹ for the second.

Compared with C16U G60U G63U, G37A G40A U56G is higher in “self-cleavage kobs at 2500 uM GlcN6P” value: less than 1e-05 s⁻¹ for the first, 5.62e-05 ± 1.8e-05 s⁻¹ for the second.

First: G32U A33C A48U G62C
Second: A15G G37U C61A C68A C70G
The “self-cleavage kobs at 2500 uM GlcN6P” value of the first is lower: less than 1e-05 s⁻¹ for the first, 4.28e-05 ± 2e-05 s⁻¹ for the second.

G35U A36G G63C and U31C G32C G37U G41C U46A A53U U55A A64C cannot be ordered by “self-cleavage kobs at 2500 uM GlcN6P” value: less than 1e-05 s⁻¹ for the first, less than 1e-05 s⁻¹ for the second.

G35A G41U C70A and U31G G63C cannot be ordered by “self-cleavage kobs at 2500 uM GlcN6P” value: less than 1e-05 s⁻¹ for the first, less than 1e-05 s⁻¹ for the second.

C34U A42U U49G U54A U56C G63U and C34G U54C G60U cannot be ordered by “self-cleavage kobs at 2500 uM GlcN6P” value: less than 1e-05 s⁻¹ for the first, less than 1e-05 s⁻¹ for the second.

G29U A42U C68A C71U and G29U G38A A52U cannot be ordered by “self-cleavage kobs at 2500 uM GlcN6P” value: less than 1e-05 s⁻¹ for the first, less than 1e-05 s⁻¹ for the second.

C34U G35C A52U C68G and C34U G35A G44U cannot be ordered by “self-cleavage kobs at 2500 uM GlcN6P” value: less than 1e-05 s⁻¹ for the first, less than 1e-05 s⁻¹ for the second.

C16G U45C G62U and A33G G35C G37A cannot be ordered by “self-cleavage kobs at 2500 uM GlcN6P” value: less than 1e-05 s⁻¹ for the first, less than 1e-05 s⁻¹ for the second.

A36C G60C A64U U65C and A15U U31G G59A cannot be ordered by “self-cleavage kobs at 2500 uM GlcN6P” value: less than 1e-05 s⁻¹ for the first, less than 1e-05 s⁻¹ for the second.

U30G G32U G35A A53G and A36U G44U C58G cannot be ordered by “self-cleavage kobs at 2500 uM GlcN6P” value: less than 1e-05 s⁻¹ for the first, less than 1e-05 s⁻¹ for the second.

C16A G51U A52C G60U and U31A G38U C68U cannot be ordered by “self-cleavage kobs at 2500 uM GlcN6P” value: less than 1e-05 s⁻¹ for the first, less than 1e-05 s⁻¹ for the second.

G32C G37U A39U C58G G59C C61U C67G C70G and G35C A36U G59U C61G cannot be ordered by “self-cleavage kobs at 2500 uM GlcN6P” value: less than 1e-05 s⁻¹ for the first, less than 1e-05 s⁻¹ for the second.

U31A G38U G41U and G29U G40U G62U G63A C71A cannot be ordered by “self-cleavage kobs at 2500 uM GlcN6P” value: less than 1e-05 s⁻¹ for the first, less than 1e-05 s⁻¹ for the second.

U31A G43A G44U and C16U U49G G66C C71U cannot be ordered by “self-cleavage kobs at 2500 uM GlcN6P” value: less than 1e-05 s⁻¹ for the first, less than 1e-05 s⁻¹ for the second.

G35A G41A G66U and G35U G44A C50A U56C G59C G60C G66C cannot be ordered by “self-cleavage kobs at 2500 uM GlcN6P” value: less than 1e-05 s⁻¹ for the first, less than 1e-05 s⁻¹ for the second.

U31C G62U and A36C G37A A39C C50U A53C cannot be ordered by “self-cleavage kobs at 2500 uM GlcN6P” value: less than 1e-05 s⁻¹ for the first, less than 1e-05 s⁻¹ for the second.

First: C19U G41C U55C C70A
Second: G29U G37C U46G
The “self-cleavage kobs at 2500 uM GlcN6P” value of the first is higher: 0.000203 ± 9.2e-05 s⁻¹ for the first, less than 1e-05 s⁻¹ for the second.

A36U G63A and G26C U47C G60C cannot be ordered by “self-cleavage kobs at 2500 uM GlcN6P” value: less than 1e-05 s⁻¹ for the first, less than 1e-05 s⁻¹ for the second.

G32A A42G C58G C61U C70U and C34G A52G A64U cannot be ordered by “self-cleavage kobs at 2500 uM GlcN6P” value: less than 1e-05 s⁻¹ for the first, less than 1e-05 s⁻¹ for the second.

Going from U30A A42C U45G U65G C70G to U31C A39U U54A C61U, the “self-cleavage kobs at 2500 uM GlcN6P” value falls from 0.000761 ± 0.00026 s⁻¹ to less than 1e-05 s⁻¹.

G32U G37A A48U C61U and A36U G51C C70G cannot be ordered by “self-cleavage kobs at 2500 uM GlcN6P” value: less than 1e-05 s⁻¹ for the first, less than 1e-05 s⁻¹ for the second.

A36C U55A U65G and U31C A39G G44C U47C U65A cannot be ordered by “self-cleavage kobs at 2500 uM GlcN6P” value: less than 1e-05 s⁻¹ for the first, less than 1e-05 s⁻¹ for the second.

U31C G35A A52U and C16G G32C G35C A36U A53C C70A cannot be ordered by “self-cleavage kobs at 2500 uM GlcN6P” value: less than 1e-05 s⁻¹ for the first, less than 1e-05 s⁻¹ for the second.

G32A G38C A39C A48C G59U and A33C U56C C71A cannot be ordered by “self-cleavage kobs at 2500 uM GlcN6P” value: less than 1e-05 s⁻¹ for the first, less than 1e-05 s⁻¹ for the second.

U30G G32U U46G C58U and G32A G41U C68U cannot be ordered by “self-cleavage kobs at 2500 uM GlcN6P” value: less than 1e-05 s⁻¹ for the first, less than 1e-05 s⁻¹ for the second.

First: A33C A39G U45A A52G
Second: G29C G37A
The “self-cleavage kobs at 2500 uM GlcN6P” value of the first is lower: less than 1e-05 s⁻¹ for the first, 7.11e-05 ± 1.8e-05 s⁻¹ for the second.

Variants of: B1
Assay: self-cleavage kobs at 10000 uM GlcN6P; higher = faster cleavage; RNA array
Settings: with glucosamine-6-phosphate
Summary of the method: as §1

Compared with U30C C34A G60C C68U, G32U A52G is higher in “self-cleavage kobs at 10000 uM GlcN6P” value: less than 1e-05 s⁻¹ for the first, 6.6e-05 ± 5.2e-06 s⁻¹ for the second.

U31C G62U and A36C G37A A39C C50U A53C cannot be ordered by “self-cleavage kobs at 10000 uM GlcN6P” value: less than 1e-05 s⁻¹ for the first, less than 1e-05 s⁻¹ for the second.

With G29C G37A the “self-cleavage kobs at 10000 uM GlcN6P” value was 0.000165 ± 3.8e-05 s⁻¹.

Source: the supplement of paper PMC7125110
